Consider one molecule from patent US11726087B2, “Methods, compositions, and kits for detection of aspergillosis” (priority 2013, dated 2023).

One experiment concerns the target T1, native Asp f2 (Aspergillus fumigatus, UniProt P79017).
T1 construct: beads were incubated with native or recombinant Asp f2; endogenous in cells; host or cells: Aspergillus fumigatus (preparation of the native protein not described for this assay)
The experiment can be described thus: Western blot, binding to native Asp f2. The following applies: A. fumigatus culture filtrates, different glycosylation states. The procedure: (§1) Western blots were performed to compare the binding specificity of 5D7A1 and the recombinant scFvs generated in Example 8.

Another experiment concerns the target T2, recombinant SMT3-Asp f2 (Aspergillus fumigatus, UniProt P79017).
T2 construct: 3: recombinant (r)SMT3-Asp f2; Thioredoxin (Trx) (N); His6 (internal); S-tag (internal); made in house; host or cells: Escherichia coli
The experiment in a line: Western blot, binding to recombinant SMT3-Asp f2. The arrangement: species or system A. fumigatus. The method, then:
as §1

T1 sequence (P79017 32-310): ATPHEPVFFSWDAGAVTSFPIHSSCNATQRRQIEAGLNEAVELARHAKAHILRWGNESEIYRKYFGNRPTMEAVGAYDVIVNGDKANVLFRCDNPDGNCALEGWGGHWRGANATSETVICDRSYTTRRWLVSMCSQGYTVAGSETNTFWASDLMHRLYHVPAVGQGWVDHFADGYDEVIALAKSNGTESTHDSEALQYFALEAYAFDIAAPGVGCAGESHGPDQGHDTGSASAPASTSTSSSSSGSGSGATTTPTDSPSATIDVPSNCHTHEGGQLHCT
T2 sequence (P79017 32-310, added parts left off): as the sequence (P79017 32-310) above

B1: VH-G-515-VL-Fc scFv: scFv of 5D7A1, VH linked to VL via GS15 linker, fused to human IgG Fc; SEQ ID NO: 22 (protein)
chain: METDTLLLWVLLLWVPGSTGEVQLEESGAELARPGASVKMSCKASGYTFTTYTMHWVKQRPGQGLEWIGYINPSSGYTNYNQKFKDKATLTANKSSSIGYMQLSSLTSEDSALYYCLRRPYRSHGGWFFDVWGAGTTVTVSSAMALQASGGGGSGGGGSGGGGSASDIVMTQSQKFMSTSVGDRVSVTCKASQNVETNVAWYQQKLGQSPKALIYSASFRTSGVPDRFTGSGSGTDFTLTINNVQSEDLAEYFCQQYNTYPLTFGAGTKLELKV[human IgG1 Fc cut from this listing]
modifications: VH-GS15-VL-Fc scFv
On to B1, for which the “binding to native Asp f2 in Western blot” value with native Asp f2 is “bound native Asp f2”. In addition, the “binding to recombinant SMT3-Asp f2 in Western blot” value with recombinant SMT3-Asp f2 is “weakly bound”.
